# Measurements: PMC4336329 (PLoS ONE, 2015)
# In all, about 310,000 compounds went through this assay and about 2,200 (0.71%) showed an effect of 50% or more. The effect is printed as a negative number. This is one part of the list.
# Biological target: human ether-à-go-go-related gene (hERG) potassium channel (human, UniProt Q12809)
# Assay: primary screen, population patch clamp on CHO cells stably expressing hERG
# Sequence of human ether-à-go-go-related gene (hERG) potassium channel (Q12809 whole entry, looked up): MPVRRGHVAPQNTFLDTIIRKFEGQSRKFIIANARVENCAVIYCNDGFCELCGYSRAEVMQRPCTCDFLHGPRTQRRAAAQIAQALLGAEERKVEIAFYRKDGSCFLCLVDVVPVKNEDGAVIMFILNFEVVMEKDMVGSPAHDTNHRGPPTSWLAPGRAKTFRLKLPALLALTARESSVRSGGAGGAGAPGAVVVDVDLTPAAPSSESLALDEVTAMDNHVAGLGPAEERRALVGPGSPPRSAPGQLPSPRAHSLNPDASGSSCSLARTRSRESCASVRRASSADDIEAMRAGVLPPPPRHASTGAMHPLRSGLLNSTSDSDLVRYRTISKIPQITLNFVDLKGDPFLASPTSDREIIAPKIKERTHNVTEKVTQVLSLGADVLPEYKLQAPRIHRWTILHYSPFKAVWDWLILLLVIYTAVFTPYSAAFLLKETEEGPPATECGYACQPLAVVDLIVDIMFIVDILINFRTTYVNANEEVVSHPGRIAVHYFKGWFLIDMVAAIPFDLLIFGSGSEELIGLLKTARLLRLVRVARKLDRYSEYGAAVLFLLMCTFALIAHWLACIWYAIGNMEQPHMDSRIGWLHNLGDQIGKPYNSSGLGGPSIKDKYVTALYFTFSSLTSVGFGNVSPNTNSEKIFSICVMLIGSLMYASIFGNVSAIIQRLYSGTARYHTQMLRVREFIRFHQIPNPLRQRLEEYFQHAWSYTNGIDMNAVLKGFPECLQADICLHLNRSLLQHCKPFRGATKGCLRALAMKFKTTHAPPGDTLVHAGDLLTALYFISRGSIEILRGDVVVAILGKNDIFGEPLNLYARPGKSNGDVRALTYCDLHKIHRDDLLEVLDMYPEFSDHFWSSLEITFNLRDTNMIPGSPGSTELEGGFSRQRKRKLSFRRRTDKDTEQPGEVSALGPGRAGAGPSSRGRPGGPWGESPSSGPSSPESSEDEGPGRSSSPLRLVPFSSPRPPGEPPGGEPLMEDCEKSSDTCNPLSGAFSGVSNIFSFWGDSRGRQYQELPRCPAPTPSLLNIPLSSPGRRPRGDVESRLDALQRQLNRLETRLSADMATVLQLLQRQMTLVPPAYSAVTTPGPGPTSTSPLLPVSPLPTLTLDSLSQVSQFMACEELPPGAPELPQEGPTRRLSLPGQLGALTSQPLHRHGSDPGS
row,Structure (SMILES),"hERG current change (%, negative = inhibition) at 1uM"
1,O=C(O)CCc1nc(-c2ccc(Cl)cc2)no1,10.2%
2,COc1cccc2sc(N3CCN(c4nc5ccccc5s4)CC3)nc12,7.25%
3,COc1ccc2cc(N=Cc3nc(-c4ccc(C)cc4)oc3O)cnc2c1,4.77%
4,CCOc1ccccc1N(CC(=O)Nc1cccnc1)S(=O)(=O)c1ccc(C)cc1,8.87%
5,CCCN1CCN(c2ncnc3c2nnn3Cc2ccccc2)CC1,-3.01%
6,O=C(C1=C(O)C(=O)N(CCCn2ccnc2)C1c1ccc(F)cc1)c1ccco1 (centres unmarked),14.9%
7,CCC/C(O)=C1\C(=O)CCCC1=NCCCCCC(=O)O,14.2%
8,COc1ccc(-c2nn(-c3ccccc3)cc2/C=C\C(=O)N2CCOCC2)cc1[N+](=O)[O-],-19%
9,COC(=O)c1ccccc1NC(=O)C1CCCCC1C(=O)O (centres unmarked),5.64%
10,O=C(NC1=NCCS1)c1ccccc1,21%
11,Cc1cc(Cl)c(S(=O)(=O)N2CCN(c3ccccn3)CC2)cc1OCC(=O)NC1CCCCC1,-15.2%
12,CC(=O)Nc1coc2ccc(Br)cc12,3.95%
13,CN(C(=O)COc1ccc(Br)cc1Cl)C1CCCCC1,0.251%
14,CCC(=O)N1CCN(c2nnc(-c3ccccc3)c3ccccc23)CC1,-2.8%
15,CCCOc1ccc(C(=O)NCc2cccnc2)cc1,8.6%
16,CN(CC(=O)Nc1ccc(F)cc1)C(=O)c1ccncc1,11%
17,COC(=O)Cn1cc(/C=N/NC(=O)c2ccc(C#N)cc2F)c2ccccc21,3.73%
18,CCOC(=O)N1CCC(N2C(=O)c3ccccc3C2=O)CC1,5.52%
19,Cc1ccc(-c2nc(N)sc2CC(=O)OCC(=O)NC2CCCC(C)C2C)cc1 (centres unmarked),5.55%
20,O=C(NNS(=O)(=O)c1ccc(C(F)(F)F)cc1)c1cnn(-c2ccccc2)c1C(F)(F)F,5%
21,COc1cccc2c1c(NC(=O)Nc1ccc(F)cc1F)nn2C,12.1%
22,CCN(CC)CCN(C)C1CCC(c2ccccc2)CC1 (centres unmarked),15.4%
23,S=C1N(c2ccccc2)C(c2ccc(Cl)cc2)N2CCCN12 (centres unmarked),3.34%

row,Structure (SMILES),"hERG current change (%, negative = inhibition) at 1uM"
1,CCOC(=O)c1c(Cl)c(C)nn1-c1nc(OC)cc(OC)n1,6.97%
2,CC1CN(Cc2nc3c(c(=O)n(C)c(=O)n3C)n2CC(=O)c2ccccc2)CC(C)O1 (centres unmarked),16.8%
3,COc1ccc(CC(NC(C)=O)C(=O)NC2CCN(S(=O)(=O)c3ccccc3)CC2)cc1OC (centres unmarked),13.2%
4,Cc1ccc(NC(=O)N2CCCCC2)cc1NC(=O)N1CCCCC1,18%
5,CNP(=S)(NC)OCCOc1ccc(OC)cc1,8.86%
6,Cc1ccccc1OCC(=O)O/N=C(\N)Cc1cccs1,12.3%
7,C=CCSc1nnc(-c2ccccc2NC(=O)CC)c(=O)[nH]1,6%
8,COc1cccc(NS(=O)(=O)Cc2ccccc2)c1,12.8%
9,Oc1ccc(-c2csc(Nc3ncccn3)n2)c(O)c1,16.2%
10,CCc1ccc(OCC(=O)N2CCc3ccccc32)cc1,9.75%
11,Cc1ccc(-c2nn(-c3ccccc3)cc2NC(=O)c2ccccc2)cc1,10.8%
12,O=C(NCCCc1nc2ccccc2[nH]1)c1ccc(F)cc1,13.7%
13,O=C(c1cccc(Cl)c1)C1CCCN(Cc2ccon2)C1 (centres unmarked),10.2%
14,CC(=O)Nc1ccc(CN2CCCN(C)CC2)cc1,14.6%
15,CC(=O)c1ccccc1NC(=O)COC(=O)CN1C(=O)C2CCCCC2C1=O (centres unmarked),0.614%
16,O=C(/C=C/c1ccccc1[N+](=O)[O-])NCc1ccccc1Cl,17%
17,O=C(N/N=C\c1ccc([N+](=O)[O-])s1)C1COc2ccccc2O1 (centres unmarked),-13.1%
18,Cc1cc(C)cc(NC(=O)N2CCC(C(=O)c3ccc(F)cc3)CC2)c1,-10.3%
19,COC(=O)CNC(=O)c1nn(-c2cccc(OC)c2)c(=O)c2ccccc12,9.98%
20,COc1cccc(-n2c(Cc3cc(=O)[nH]c(=O)[nH]3)nnc2SCC(=O)N2CCCC2)c1,4.29%
21,Cc1c(Cl)cccc1NC(=S)NCc1ccc(F)cc1,8.43%
22,CSc1ccccc1OCc1cc(C(=O)N(C)CCn2nc(C)cc2C)no1,8.12%
23,COc1ccc(/C=C/C(=O)c2nc3ccccc3n2CC(=O)c2ccc(OC)cc2)cc1,10.6%

row,Structure (SMILES),"hERG current change (%, negative = inhibition) at 1uM"
1,CCCCc1ccc(-c2nc(-c3ccncc3)no2)cc1,11.2%
2,Cc1ccccc1-c1nc(CN2CCSCC2)c(C)o1,3.9%
3,CN(CC(=O)Nc1ccccc1Br)C(=O)c1cc(Cl)nc2ccccc12,9.63%
4,CCCN(Cc1cc(=O)[nH]c2ccccc12)C(=O)CC,18.9%
5,CCOCCCNC(=O)c1ccccc1OC1CCN(S(C)(=O)=O)CC1,11.9%
6,S=C(Nc1cccc(Br)c1)c1ccccc1,2.88%
7,CCC(=O)N1CCN(c2ccccc2NC(=O)COc2cccc(C)c2)CC1,6.78%
8,Br.Cc1ccc(C(=O)Cn2c(NCCO)nc3ccccc32)cc1,0.73%
9,Cc1ccc(-c2nnc(SCC(=O)N/N=C/c3cccs3)n2-c2ccc(C)cc2)cc1,6.21%
10,COc1ccc(OCCC(=O)N2CCOCC2)cc1,10.9%
11,O=c1oc2ccccc2c(N2CCCC2)c1[N+](=O)[O-],1.12%
12,CCC(=O)Nc1nnc(S(=O)(=O)N2CCCc3ccccc32)s1,11.4%
13,Nc1n[nH]c(N)c1N=Nc1ccc2c(c1)OCO2,12.5%
14,COc1ccc2c(c1)OC[C@H]1[C@H]2N2C(=O)[C@H](C)NC(=O)[C@@]2(C)[C@H]1c1ccccc1,19.2%
15,CCCCn1cnc(C(=O)OCC)c1N,4.92%
16,CNC(=S)N(Cc1ccc(OC)cc1)Cc1cc2cc(C)ccc2[nH]c1=O,15.3%
17,COc1ccccc1N1CCN(C(c2ccccn2)c2nnnn2C2CCCCC2)CC1 (centres unmarked),0.0559%
18,CC(N)C(=O)NC(C(=O)N1CCCC1C(=O)NC(c1ccccc1)c1ccccc1)C(C)C.O=C(O)C(F)(F)F (centres unmarked),7.48%
19,Cn1nc(C(=O)N2CCC(C(N)=O)CC2)c2c1-c1ccccc1SC2,4.04%
20,COc1ccc2sc(NC(=O)CC(C)C)nc2c1,8.55%
21,CCOCc1nnc(NC(=O)c2cc(C(=O)OC)cc([N+](=O)[O-])c2)s1,13.7%
22,CCN(CC)CCN(Cc1cc2cc3c(cc2[nH]c1=O)OCO3)C(=S)NCCCN(C)C,19.6%
23,CC[C@]1(O)C[C@@H]2CN(CCc3c([nH]c4ccccc34)[C@@](C(=O)OC)(c3cc4c(cc3OC)N(C)[C@H]3[C@@](O)(C(=O)OC)[C@H](OC(C)=O)[C@]5(CC)C=CCN6CC[C@]43[C@@H]65)C2)C1.O=S(=O)(O)O,5.47%

row,Structure (SMILES),"hERG current change (%, negative = inhibition) at 1uM"
1,CCOc1ccc(-c2[nH]ncc2-c2csc(C)n2)c(O)c1,-2.34%
2,CCOC(=O)C(=CNc1ccc(-c2ccco2)c(Cl)c1)C(=O)OCC,9.73%
3,CCn1nnnc1NC(=O)c1cc(OC)c(OC)c(OC)c1,-0.215%
4,CCN1C(=O)/C(=C/N2CCc3ccccc32)SC1=S,13.9%
5,CN(CC12CC3CC(CC(C3)C1)C2)C(=O)c1ccco1,2.84%
6,Cc1cc(NC(=O)CN2C(=O)NC(c3ccccc3)(c3ccc(C)c(C)c3)C2=O)no1 (centres unmarked),-10.9%
7,O=C(c1ccc(-c2ccccc2Cl)o1)N1CCCC(C(F)(F)F)C1 (centres unmarked),13.2%
8,Cc1cc(C)n(CCOc2ccc(Br)cc2)n1,6.58%
9,Cc1cc(C)c(-c2csc(NC(=O)c3cc([N+](=O)[O-])ccc3N3CCOCC3)n2)c(C)c1,-1.74%
10,CCc1nnc(NC(=O)CN2CCN(c3cccc(OC)c3)CC2)s1,2.37%
11,COc1ccc2c(c1)c(=O)c(C(=O)c1ccccc1)cn2Cc1ccc(C)cc1,-0.852%
12,CCN1CCN(C(=O)C2CCN(c3nnc(C)c4c(C)n(-c5ccc(C)cc5)nc34)CC2)CC1,13.4%
13,CC(C)C1CC(C(F)(F)F)n2nc(C(=O)O)cc2N1 (centres unmarked),12.9%
14,Cc1ccc2cc(C(c3nnnn3C3CCCC3)N(Cc3ccccc3)Cc3ccco3)c(=O)[nH]c2c1 (centres unmarked),12.1%
15,CCn1c(CCNC(=O)c2cccs2)nnc1SCC(=O)Nc1ccc(Cl)cc1,-16%
16,Cc1ccc(CN2CCN(/N=C/c3ccccc3)CC2)cc1,2.28%
17,O=C(N/N=C/c1coc2ccc(Cl)cc2c1=O)c1ccc(O)cc1,11.4%
18,C=CCc1ccccc1OCC(O)CN1CCN(c2ccccc2F)CC1.Cl (centres unmarked),-0.42%
19,CC1(c2ccc(Cl)cc2)NC(=O)N(CC(=O)c2ccc3c(c2)OCO3)C1=O (centres unmarked),4.44%
20,O=C(NCc1ccco1)c1ccc(=O)[nH]n1,7.66%
